According to patent US20240392040A1 (AKESO HUIKE SHANGHAI, published 2024):

Columns and labels:
[1] = target: T1, PD-1 on 293T-PD1 membrane surface (full-length human PD-1 on cells) (human, UniProt Q15116 25-288); assay: flow cytometry on 293T-PD1 cells
T1 construct: whole, on cells; the Promega PD-1 effector cells are bought; also called CHO-K1-PD1 cells
Method: 100 μL of 1% PBSA was then added to each well, and the mixture was centrifuged at 350×g for 5 min, followed by removal of the supernatant. […] The mixture was mixed gently and uniformly, and then incubated on ice for 1 h. 100 μL of 1% PBSA was added to each well, and the mixture was centrifuged at 350×g for 5 min, followed by removal of the supernatant. Then the plate was washed twice with 200 μL of 1% PBSA. […] The mixture was mixed well and then incubated on ice in the dark for 0.5 h. 100 μL of 1% PBSA was added to each well, and the mixture was centrifuged at 350×g for 5 min, followed by removal of the supernatant. Then the plate was washed twice with 200 μL of 1% PBSA. 400 μL of 1% PBSA was added to each well to resuspend the cell pellets, and the mixture was transferred to a flow cytometry tube for FACSCalibur assay.

[2] = target: T2, LAG3 on 293T-LAG3 membrane surface (full-length human LAG3 on cells) (human, UniProt P18627 23-525); assay: cell-based or functional assay
T2 sequence (looked up): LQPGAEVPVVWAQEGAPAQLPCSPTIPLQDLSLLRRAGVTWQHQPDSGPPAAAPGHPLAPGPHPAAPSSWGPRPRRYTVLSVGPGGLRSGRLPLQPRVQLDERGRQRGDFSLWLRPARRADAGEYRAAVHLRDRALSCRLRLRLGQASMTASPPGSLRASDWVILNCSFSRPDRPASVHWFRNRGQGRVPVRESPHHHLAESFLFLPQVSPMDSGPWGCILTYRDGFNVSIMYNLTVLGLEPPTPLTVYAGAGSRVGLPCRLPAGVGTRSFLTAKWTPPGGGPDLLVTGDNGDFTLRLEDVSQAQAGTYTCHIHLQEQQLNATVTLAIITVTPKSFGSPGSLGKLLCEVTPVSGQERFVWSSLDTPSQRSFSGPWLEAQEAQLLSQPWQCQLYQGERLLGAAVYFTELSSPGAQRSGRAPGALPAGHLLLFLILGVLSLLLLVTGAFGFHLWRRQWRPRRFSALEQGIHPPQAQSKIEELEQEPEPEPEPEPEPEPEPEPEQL

human LAG3-mFc = target: T3, human LAG3-mFc (human, UniProt P18627 23-450, limits assumed); assay: indirect ELISA, coated human LAG3-mFc
T3 construct: not shown: mouse IgG Fc (mFc)
T3 sequence (looked up): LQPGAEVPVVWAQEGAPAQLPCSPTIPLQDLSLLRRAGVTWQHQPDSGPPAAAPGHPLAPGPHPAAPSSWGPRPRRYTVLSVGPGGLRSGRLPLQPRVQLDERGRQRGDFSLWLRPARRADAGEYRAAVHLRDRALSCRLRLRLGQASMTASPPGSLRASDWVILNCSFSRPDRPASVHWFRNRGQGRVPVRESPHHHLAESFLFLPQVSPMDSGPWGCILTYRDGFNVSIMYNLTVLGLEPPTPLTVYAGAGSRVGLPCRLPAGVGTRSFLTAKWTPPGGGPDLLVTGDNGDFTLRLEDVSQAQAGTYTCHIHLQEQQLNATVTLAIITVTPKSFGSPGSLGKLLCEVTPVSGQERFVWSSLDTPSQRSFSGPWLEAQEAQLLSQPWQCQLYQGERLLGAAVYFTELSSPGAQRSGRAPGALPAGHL
Method: Then the ELISA plate coated with the antigen was washed once with PBST and then blocked with a PBS solution containing 1% BSA as a blocking solution at 37° C. for 2 h. After blocking, the ELISA plate was washed 3 times with PBST. The ELISA plate containing the test antibodies was incubated at 37° C. for 30 min and then washed 3 times with PBST. […] After incubation, the plate was washed 4 times with PBST, TMB (Neogen, 308177) was added for chromogenesis in the dark for 5 min, and then a stop solution was added to terminate the chromogenic reaction. The ELISA plate was put into an ELISA plate reader immediately, and the OD value of each well in the ELISA plate was read at 450 nm. The data were analyzed and processed by SoftMax Pro 6.2.1.

human PD-1-mFc-Biotin = target: T4, human PD-1-mFc-Biotin (human, UniProt Q15116 partial chain, limits assumed, biotin label (site not stated)); assay: competitive ELISA, blocking of PD-1-mFc-Biotin binding to coated human PDL1-mFc
T4 construct: not shown: mouse IgG Fc (mFc)
Method: After incubation, the ELISA plate was blocked with a PBS solution containing 1% BSA at 37° C. for 2 h. After blocking, the plate was washed three times and dried. The antibody was serially diluted on a dilution plate in a 3-fold dilution ratio to achieve 7 concentrations with 80 nM as the starting concentration (at a final concentration of 40 nM), and a blank control was set. […] Then the mixture was incubated at room temperature for 10 min. Then the mixture after reaction was added to the coated ELISA plate, and the ELISA plate was incubated at 37° C. for 30 min. After incubation, the plate was washed three times with PBST and dried. An SA-HRP (KPL, 14-30-00) working solution was added, and the plate was incubated at 37° C. for 30 min. After incubation, the plate was washed four times and dried. Then TMB (Neogen, 308177) was added in the dark for chromogenesis for 5 min, and then a stop solution was added to terminate the chromogenic reaction. The ELISA plate was put into an ELISA plate reader immediately, and the OD value of each well in the ELISA plate was read at 450 nm. The data were analyzed and processed by SoftMax Pro 6.2.1.

human PD-1-mFc = target: T5, human PD-1-mFc (human, UniProt Q15116 partial chain, limits assumed); assay: indirect ELISA, coated human PD-1-mFc
T5 construct: not shown: mouse IgG Fc (mFc)
Method: Then the ELISA plate coated with the antigen was washed once with PBST and then blocked with a PBS solution containing 1% BSA as a blocking solution at 37° C. for 2 h. After blocking, the ELISA plate was washed 3 times with PBST. The ELISA plate containing the test antibodies was incubated at 37° C. for 30 min and then washed 3 times with PBST.
After incubation, the plate was washed 4 times with PBST, TMB (Neogen, 308177) was added for chromogenesis in the dark for 5 min, and then a stop solution was added to terminate the chromogenic reaction. The ELISA plate was put into an ELISA plate reader immediately, and the OD value of each well in the ELISA plate was read at 450 nm. The data were analyzed and processed by SoftMax Pro 6.2.1.

Sequence of human PD-1-mFc (Q15116 25-170 limits assumed): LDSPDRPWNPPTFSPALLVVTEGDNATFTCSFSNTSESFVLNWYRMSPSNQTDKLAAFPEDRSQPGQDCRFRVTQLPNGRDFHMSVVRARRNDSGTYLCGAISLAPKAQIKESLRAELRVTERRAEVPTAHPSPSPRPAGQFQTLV
Sequence of human PD-1-mFc-Biotin (Q15116 25-170 limits assumed): as above

B1: Bi-PGV02 (bispecific antibody, human IgG4 S228P, kappa, F234A L235A)
heavy: QVQLQQWGAGLLKPSETLSLTCAVYGGSISDYYWNWIRQPPGKGLEWIGEINHRGTTNSNPSLKSRVTLSLDTSKNQFSLKLRSVTAADTAVYYCAFGYSDYEYDWFDPWGQGTLVTVSSASTKGPSVFPLAPCSRSTSESTAALGCLVKDYFPEPVTVSWNSGALTSGVHTFPAVLQSSGLYSLSSVVTVPSSSLGTKTYTCNVDHKPSNTKVDKRV[skipping human IgG4 Fc with S228P F234A L235A (EU numbers)]GGGGSGGGGSGGGGSGGGGSEVQLVESGGGLVQPGGSLRLSCAASGFAFSSYDMSWVRQAPGKGLDWVATISGGGRYTYYPDSVKGRFTISRDNSKNNLYLQMNSLRAEDTALYYCANRYGEAWFAYWGQGTLVTVSSGGGGSGGGGSGGGGSGGGGSDIQMTQSPSSMSASVGDRVTFTCRASQDINTYLSWFQQKPGKSPKTLIYRANRLVSGVPSRFSGSGSGQDYTLTISSLQPEDMATYYCLQYDEFPLTFGAGTKLELK
light: EIVLTQSPATLSLSPGERATLSCRASQTISSYLAWYQQKPGQAPRLLIYDASNRATGIPARFSGSGSGTDFTLTISSLEPEDFAVYYCQQRSNWPITFGQGTNLEIKRTVAAPSVFIFPPSDEQLKSGTASVVCLLNNFYPREAKVQWKVDNALQSGNSQESVTEQDSKDSTYSLSSTLTLSKADYEKHKVYACEVTHQGLSSPVTKSFNRGEC
For B1, the EC50 [1] was 7.21 nM and the “EC50 (nM), luciferase reporter (RLU), Jurkat-NFAT-PD1-LAG3 cells + SEE-treated Raji cells” value [2] was 1.48 nM.

B2: BS-PL021A (bispecific antibody, human IgG1, kappa)
heavy: QVQLQQWGAGLLKPSETLSLTCAVYGGSISDYYWNWIRQPPGKGLEWIGEINHRGTTNSNPSLKSRVTLSLDTSKNQFSLKLRSVTAADTAVYYCAFGYSDYEYDWFDPWGQGTLVTVSSASTKGPSVFPLAPSSKSTSGGTAALGCLVKDYFPEPVTVSWNSGALTSGVHTFPAVLQSSGLYSLSSVVTVPSSSLGTQTYICNVNHKPSNTKVDKKV[skipping human IgG1 Fc with L234A L235A G237A (EU numbers)]GGGGSGGGGSGGGGSEVQLVESGGGLVQPGGSLRLSCAASGFAFSSYDMSWVRQAPGKGLDWVATISGGGRYTYYPDSVKGRFTISRDNSKNNLYLQMNSLRAEDTALYYCANRYGEAWFAYWGQGTLVTVSSGGGGSGGGGSGGGGSGGGGSDIQMTQSPSSMSASVGDRVTFTCRASQDINTYLSWFQQKPGKSPKTLIYRANRLVSGVPSRFSGSGSGQDYTLTISSLQPEDMATYYCLQYDEFPLTFGAGTKLELKR
light: EIVLTQSPATLSLSPGERATLSCRASQTISSYLAWYQQKPGQAPRLLIYDASNRATGIPARFSGSGSGTDFTLTISSLEPEDFAVYYCQQRSNWPITFGQGTNLEIKRTVAAPSVFIFPPSDEQLKSGTASVVCLLNNFYPREAKVQWKVDNALQSGNSQESVTEQDSKDSTYSLSSTLTLSKADYEKHKVYACEVTHQGLSSPVTKSFNRGEC
notes: Morrison form (IgG-scFv): an scFv at the C-terminus of each of the two heavy chains
B2 showed an EC50 (human LAG3-mFc) of 0.073 nM, an EC50 (human PD-1-mFc-Biotin) of 3.03 nM and an EC50 (human PD-1-mFc) of 0.066 nM. For the same binder, the EC50 [1] was 6.85 nM.

B3: H7L8(hG1WT) (antibody, human IgG1, kappa)
heavy: QVQLQQWGAGLLKPSETLSLTCAVYGGSISDYYWNWIRQPPGKGLEWIGEINHRGTTNSNPSLKSRVTLSLDTSKNQFSLKLRSVTAADTAVYYCAFGYSDYEYDWFDPWGQGTLVTVSS[skipping human IgG1 constant region]
light: EIVLTQSPATLSLSPGERATLSCRASQTISSYLAWYQQKPGQAPRLLIYDASNRATGIPARFSGSGSGTDFTLTISSLEPEDFAVYYCQQRSNWPITFGQGTNLEIKRTVAAPSVFIFPPSDEQLKSGTASVVCLLNNFYPREAKVQWKVDNALQSGNSQESVTEQDSKDSTYSLSSTLTLSKADYEKHKVYACEVTHQGLSSPVTKSFNRGEC
notes: Humanized anti-LAG3 antibody, wild-type human IgG1 constant region
Work on B3 yielded an EC50 (human LAG3-mFc) of 0.045 nM.
